# Measured values from the supplement of paper PMC8728848.
# Some of the results follow.
# How the values were obtained:
# Assay in all cases: glycan array binding signal (z-score within array); higher = stronger binding
# Conditions in all cases: glycan notation: IUPAC condensed, linker removed
# [1] = biological target: Fuc(a1-2)[Gal(a1-4)]Gal(b1-4)GlcNAc
# Procedure, shortened: (§1)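 Glycan array data came from 3228 arrays in the Consortium for Functional Glycomics database, and only arrays with an available protein sequence were kept. Glycan names were put into IUPAC-condensed notation, and columns mapping to the same glycan were averaged. The binding signal is a within-array Z-score, averaged across arrays of one protein sequence run at different concentrations or buffers and across linkers. A negative Z-score can be read as non-binding.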
# [2] = biological target: Fuc(a1-2)[GalNAc(a1-3)]Gal
# Procedure, shortened: as §1
# [3] = biological target: Fuc(a1-2)[GalNAc(a1-3)]Gal(b1-3)GalNAc(a1-3)[Fuc(a1-2)]Gal(b1-4)GlcNAc
# Procedure, shortened: as §1
# [4] = biological target: Fuc(a1-2)[GalNAc(a1-3)]Gal(b1-3)GalNAc(b1-3)Gal(a1-4)Gal(b1-4)Glc
# Procedure, shortened: as §1
# [5] = biological target: Fuc(a1-2)[GalNAc(a1-3)]Gal(b1-3)GlcNAc
# Procedure, shortened: as §1
# [6] = biological target: Fuc(a1-2)[GalNAc(a1-3)]Gal(b1-3)GlcNAc(b1-2)Man(a1-3)[Fuc(a1-2)[GalNAc(a1-3)]Gal(b1-3)GlcNAc(b1-2)Man(a1-6)]Man(b1-4)GlcNAc(b1-4)GlcNAc
# Procedure, shortened: as §1
# [7] = biological target: Fuc(a1-2)[GalNAc(a1-3)]Gal(b1-3)GlcNAc(b1-2)Man(a1-3)[Fuc(a1-2)[GalNAc(a1-3)]Gal(b1-3)GlcNAc(b1-2)Man(a1-6)]Man(b1-4)GlcNAc(b1-4)[Fuc(a1-6)]GlcNAc
# Procedure, shortened: as §1
# [8] = biological target: Fuc(a1-2)[GalNAc(a1-3)]Gal(b1-3)GlcNAc(b1-3)GalNAc
# Procedure, shortened: as §1
# [9] = biological target: Fuc(a1-2)[GalNAc(a1-3)]Gal(b1-3)GlcNAc(b1-6)GalNAc
# Procedure, shortened: as §1
# [10] = biological target: Fuc(a1-2)[GalNAc(a1-3)]Gal(b1-4)Glc
# Procedure, shortened: as §1
# [11] = biological target: Fuc(a1-2)[GalNAc(a1-3)]Gal(b1-4)GlcNAc
# Procedure, shortened: as §1
# [12] = biological target: Fuc(a1-2)[GalNAc(a1-3)]Gal(b1-4)GlcNAc(b1-2)Man
# Procedure, shortened: as §1
# [13] = biological target: Fuc(a1-2)[GalNAc(a1-3)]Gal(b1-4)GlcNAc(b1-2)Man(a1-3)[Fuc(a1-2)[GalNAc(a1-3)]Gal(b1-4)GlcNAc(b1-2)Man(a1-6)]Man(b1-4)GlcNAc(b1-4)GlcNAc
# Procedure, shortened: as §1
# [14] = biological target: Fuc(a1-2)[GalNAc(a1-3)]Gal(b1-4)GlcNAc(b1-2)Man(a1-3)[Fuc(a1-2)[GalNAc(a1-3)]Gal(b1-4)GlcNAc(b1-2)Man(a1-6)]Man(b1-4)GlcNAc(b1-4)[Fuc(a1-6)]GlcNAc
# Procedure, shortened: as §1
# [15] = biological target: Fuc(a1-2)[GalNAc(a1-3)]Gal(b1-4)GlcNAc(b1-3)Gal(b1-4)GlcNAc
# Procedure, shortened: as §1
# [16] = biological target: Fuc(a1-2)[GalNAc(a1-3)]Gal(b1-4)GlcNAc(b1-3)Gal(b1-4)GlcNAc(b1-3)Gal(b1-4)GlcNAc
# Procedure, shortened: as §1
# [17] = biological target: Fuc(a1-2)[GalNAc(a1-3)]Gal(b1-4)GlcNAc(b1-3)GalNAc
# Procedure, shortened: as §1
# [18] = biological target: Fuc(a1-2)[GalNAc(a1-3)]Gal(b1-4)GlcNAc(b1-3)[Fuc(a1-2)[GalNAc(a1-3)]Gal(b1-4)GlcNAc(b1-6)]GalNAc
# Procedure, shortened: as §1
# [19] = biological target: Fuc(a1-2)[GalNAc(a1-3)]Gal(b1-4)GlcNAc(b1-6)GalNAc
# Procedure, shortened: as §1
# [20] = biological target: Fuc(a1-2)[GalNAc(a1-3)]Gal(b1-4)[Fuc(a1-3)]GlcNAc
# Procedure, shortened: as §1
# [21] = biological target: Fuc(a1-2)[GalNAc(a1-3)]Gal(b1-4)[Fuc(a1-3)]GlcNAc(b1-3)GalNAc
# Procedure, shortened: as §1
# [22] = biological target: Fuc(a1-2)[GalNAc(a1-4)]Gal(b1-4)GlcNAc
# Procedure, shortened: as §1
# [23] = biological target: Fuc(a1-2)[GalNAc(b1-3)]Gal
# Procedure, shortened: as §1
# Fuc(a1-3)GlcNAc = biological target: Fuc(a1-3)GlcNAc
# Procedure, shortened: as §1
# [24] = biological target: Fuc(a1-3)[Gal(b1-4)]Glc6S
# Procedure, shortened: as §1
# [25] = biological target: Fuc(a1-3)[Gal(b1-4)]GlcNAc
# Procedure, shortened: as §1
# [26] = biological target: Fuc(a1-3)[Gal(b1-4)]GlcNAc(b1-2)Man
# Procedure, shortened: as §1
# [27] = biological target: Fuc(a1-3)[Gal(b1-4)]GlcNAc(b1-2)Man(a1-3)[Fuc(a1-3)[Gal(b1-4)]GlcNAc(b1-2)Man(a1-6)]Man(b1-4)GlcNAc(b1-4)GlcNAc
# Procedure, shortened: as §1
# [28] = biological target: Fuc(a1-3)[Gal(b1-4)]GlcNAc(b1-2)Man(a1-3)[Fuc(a1-3)[Gal(b1-4)]GlcNAc(b1-2)Man(a1-6)]Man(b1-4)GlcNAc(b1-4)[Fuc(a1-6)]GlcNAc
# Procedure, shortened: as §1
# [29] = biological target: Fuc(a1-3)[Gal(b1-4)]GlcNAc(b1-3)Gal(b1-3)[Fuc(a1-4)]GlcNAc
# Procedure, shortened: as §1
# [30] = biological target: Fuc(a1-3)[Gal(b1-4)]GlcNAc(b1-3)Gal(b1-4)[Fuc(a1-3)]GlcNAc
# Procedure, shortened: as §1
# [31] = biological target: Fuc(a1-3)[Gal(b1-4)]GlcNAc(b1-3)Gal(b1-4)[Fuc(a1-3)]GlcNAc(b1-3)Gal(b1-4)[Fuc(a1-3)]GlcNAc
# Procedure, shortened: as §1
# [32] = biological target: Fuc(a1-3)[Gal(b1-4)]GlcNAc(b1-3)GalNAc
# Procedure, shortened: as §1
# [33] = biological target: Fuc(a1-3)[Gal(b1-4)]GlcNAc(b1-6)GalNAc
# Procedure, shortened: as §1
# [34] = biological target: Fuc(a1-3)[Gal(b1-4)]GlcNAc(b1-6)[Gal(b1-3)GlcNAc(b1-3)]Gal(b1-4)Glc
# Procedure, shortened: as §1
# [35] = biological target: Fuc(a1-3)[Gal(b1-4)]GlcNAc6S
# Procedure, shortened: as §1
# [36] = biological target: Fuc(a1-3)[Gal3S(b1-4)]Glc
# Procedure, shortened: as §1
# [37] = biological target: Fuc(a1-3)[Gal3S(b1-4)]GlcNAc
# Procedure, shortened: as §1
binder,measurement,setting,value
GS7807E-bfa-538-23-538 (Bacteroides fragilis) (protein) TDSFESFNTNEAGFDNDSKKQDFNYYGIPLGIIQQGIYFNYDWGSGKNWPFQTMQNLGADLFSGYVHDFNPFNEGKNNSTYYMMDGWNGSTWDNTYGYIMPEVQKSETINEKDNIGFFGITKILKVELMHRLSDLYGPIVYTQFGSKTGSTPDTQQEAYKAFFNDLDTGIAKIREYQKANPDIESFAKFDILMPQGKRTFSEWIRFANSLRLRLAVRIAMADSKLAVAEAQKALTDEEGLLEGNDEVVAVSTSSGYTNPFGEINKAWGEVFMNANMESLLVGYEDPRMEKYFDKATGSDATSLIDYKGTYKGIRQGTGFSHKNYNGHSKSTITQQTDAVLMTPAEVWFLRAEAALRGWSSESVKDCYEKGVKASFAQWGAAGAEAYLESDRKPSDYVDAFKAANNVKAVNTLTPKWDDAAGNEDKLGRIITQKWLAMFPEGGEAWAEQRRTGYPRLFPVLVNQSEGTVDTNLGPRRLNFFVGIKTTNPEQYTQLVNALGGIDNCGTRLWWDTGRNF,glycan array binding signal (z-score),[1],1.09
same,glycan array binding signal (z-score),[2],-0.468
same,glycan array binding signal (z-score),[3],-0.615
same,glycan array binding signal (z-score),[4],-0.632
same,glycan array binding signal (z-score),[5],-0.176
same,glycan array binding signal (z-score),[6],-0.293
same,glycan array binding signal (z-score),[7],-0.587
same,glycan array binding signal (z-score),[8],-0.382
same,glycan array binding signal (z-score),[9],-0.322
same,glycan array binding signal (z-score),[10],-0.66
same,glycan array binding signal (z-score),[11],-0.634
same,glycan array binding signal (z-score),[12],-0.618
same,glycan array binding signal (z-score),[13],0.771
same,glycan array binding signal (z-score),[14],-0.4
same,glycan array binding signal (z-score),[15],-0.377
same,glycan array binding signal (z-score),[16],0.104
same,glycan array binding signal (z-score),[17],-0.681
same,glycan array binding signal (z-score),[18],1.77
same,glycan array binding signal (z-score),[19],-0.685
same,glycan array binding signal (z-score),[20],1.45
same,glycan array binding signal (z-score),[21],0.598
same,glycan array binding signal (z-score),[22],0.259
same,glycan array binding signal (z-score),[23],0.211
same,glycan array binding signal (z-score),Fuc(a1-3)GlcNAc,-0.691
same,glycan array binding signal (z-score),[24],1.45
same,glycan array binding signal (z-score),[25],-0.535
same,glycan array binding signal (z-score),[26],-0.136
same,glycan array binding signal (z-score),[27],-0.169
same,glycan array binding signal (z-score),[28],0.877
same,glycan array binding signal (z-score),[29],-0.664
same,glycan array binding signal (z-score),[30],-0.187
same,glycan array binding signal (z-score),[31],-0.679
same,glycan array binding signal (z-score),[32],0.467
same,glycan array binding signal (z-score),[33],-0.366
same,glycan array binding signal (z-score),[34],-0.613
same,glycan array binding signal (z-score),[35],0.44
same,glycan array binding signal (z-score),[36],-0.105
same,glycan array binding signal (z-score),[37],-0.491
